# The inconclusive results got no clear call from the source; some entries with a clear call stand among them for comparison. No potency is given beside an inconclusive call; the fits are too rough. Active and inactive are the calls of the source. The call rests on the fitted dose curve; in most records, active means well fitted curve in the direction sought with a large enough effect; inconclusive means small, poorly fitted or top-dose-only effect, or another doubt; inactive means no such curve, though single readings can be large; an effect the other way counts as inactive or inconclusive.
# Experiments:
# [1] = test system: Nanoluciferase (engineered Oplophorus gracilirostris luciferase); test: Primary Nanoluciferase (NLuc) qHTS assay for identification of artifact compounds. (AID 1845222)
# Method in brief: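 Diluted conditioned medium from NLuc-expressing S16 cells treated with compounds for 15 min at room temperature, then Nano-Glo substrate added; luminescence read after 5 min. Percent inhibition versus no-enzyme and DMSO controls fitted to 4-parameter Hill equation.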
# [2] = Primary redox qHTS assay for identification of artifact compounds. (AID 1845223)
# Method in brief: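 Amplex Red (25 uM) and HRP (250 mU/mL) in HBSS, with compounds for 15 min, then 250 uM DTT for 30 min, room temperature, dark. Fluorescence 525/598 nm read; normalized to DMSO and 10 uM DA3003; Hill fit.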
# [3] = Quantitative High-Throughput drug screen in 47 multiple myeloma cell lines against the NCATS MIPE library collection: FR4_PLB cell viability assay (AID 1918924; further: nearly all actives have a fitted effect of over 35% in size)
# Method in brief: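 Inhibition of cell viability is measured here. Each line was plated at 500 cells per well, treated with MIPE 4.0 drugs, kept 48 hours at 37C, then assayed for ATP content by CellTiter-Glo luminescence.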
# [4] = Quantitative High-Throughput drug screen in 47 multiple myeloma cell lines against the NCATS MIPE library collection: Delta47_JCRB cell viability assay (AID 1918925; further: nearly all actives have a fitted effect of over 45% in size); details: Delta47 myeloma viability, CellTiter-Glo ATP, 48 h; viability (% of DMSO): at 45.8 µM (top of the series)
# Method in brief: (§1)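 Relative luminescence from CellTiter-Glo served as the viability signal, referenced to DMSO-treated (100%) and cell-free medium (0%) controls. Treatment lasted 48 hours at 37C with 500 cells per well.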
# [5] = Quantitative High-Throughput drug screen in 47 multiple myeloma cell lines against the NCATS MIPE library collection: ARD_JJKsccE7 cell viability assay (AID 1918929); details: ARD myeloma cell line viability, CellTiter-Glo, 48 h; viability: at 45.8 µM (top of the series)
# Method in brief: as §1
# [6] = Quantitative High-Throughput drug screen in 47 multiple myeloma cell lines against the NCATS MIPE library collection: KMM1_JCRB cell viability assay (AID 1918960); details: KMM1 myeloma viability, CellTiter-Glo ATP luminescence, 48 h; viability (% of DMSO): at 45.8 µM (top of the series); further: nearly all actives have a fitted effect of over 30% in size
# Method in brief: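 ATP readout (CellTiter-Glo), 48 h drug incubation, 37 °C/5% CO2, 500 cells per well; normalisation to DMSO (100%) and media-only (0%) controls.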
# Potency means the concentration at half of the fitted maximal effect; tags describe the fitted curve by direction and shape.
smiles,measurement,setting,value
COc1c(C(C)C)cc2c(c1O)[C@@]1(C(=O)O)CCCC(C)(C)C1CC2 (stereo not given in full),Potency,[1],"inconclusive [inhibitor, partial curve]"
CCNC(=O)C[C@@H]1N=C(c2ccc(Cl)cc2)c2cc(OC)ccc2-n2c(C)nnc21,Potency,[1],"inconclusive [inhibitor, single point]"
same,Potency,[2],inactive
same,Potency,[3],"inconclusive [cytotoxic, full curve]"
COC(=O)C1(C)CCC(O)C2(C)c3cc(O)c(C(C)C)cc3C(O)C(OC(C)=O)C12 (stereo not given),Potency,[2],"inconclusive [activator, partial curve, poor fit]"
Cc1cccc(NC(=O)N[C@@H]2N=C(c3ccccc3)c3ccccc3N(C)C2=O)c1,Potency,[1],"inconclusive [inhibitor, single point]"
C[C@H](Nc1ncnc2nc[nH]c12)c1nc2ccc(F)cc2c(=O)n1-c1ccccc1,Potency,[1],inactive
C[C@]12CC[C@H](O)CC1=CC[C@@H]1C2CC[C@]2(C)[C@@H](C3=CC(=O)OC3)CC[C@]12O (stereo not given in full),Potency,[2],inactive
CC(=O)O[C@H]1C[C@@H](OC(C)=O)C(C)(C)C2C[C@@H](O)[C@]3(C)C(CC[C@@]4(C)[C@H](C5=CC(=O)OC5O)C[C@H]5O[C@]543)[C@]21C (stereo not given in full),Potency,[2],"inconclusive [activator, partial curve]"
CC(NC(C)(C)C)C(=O)c1cccc(Cl)c1 (stereo not given),Potency,[1],"inconclusive [inhibitor, partial curve]"
same,Potency,[2],inactive
same,Potency,[3],inactive
same,Potency,[4],"inconclusive [rising, full curve, poor fit]"
same,Potency,[5],"inconclusive [cytotoxic, single point]"
same,Potency,[6],"inconclusive [rising, full curve, poor fit]"
